# Among all 310,000 compounds or so, about 2,200 (0.71%) showed an effect of 50% or more. Effects have a minus sign here. Some of the results follow.
# Biological target: human ether-à-go-go-related gene (hERG) potassium channel (human, UniProt Q12809)
# Test: primary screen, population patch clamp on CHO cells stably expressing hERG
# Sequence of human ether-à-go-go-related gene (hERG) potassium channel (Q12809 whole entry, looked up): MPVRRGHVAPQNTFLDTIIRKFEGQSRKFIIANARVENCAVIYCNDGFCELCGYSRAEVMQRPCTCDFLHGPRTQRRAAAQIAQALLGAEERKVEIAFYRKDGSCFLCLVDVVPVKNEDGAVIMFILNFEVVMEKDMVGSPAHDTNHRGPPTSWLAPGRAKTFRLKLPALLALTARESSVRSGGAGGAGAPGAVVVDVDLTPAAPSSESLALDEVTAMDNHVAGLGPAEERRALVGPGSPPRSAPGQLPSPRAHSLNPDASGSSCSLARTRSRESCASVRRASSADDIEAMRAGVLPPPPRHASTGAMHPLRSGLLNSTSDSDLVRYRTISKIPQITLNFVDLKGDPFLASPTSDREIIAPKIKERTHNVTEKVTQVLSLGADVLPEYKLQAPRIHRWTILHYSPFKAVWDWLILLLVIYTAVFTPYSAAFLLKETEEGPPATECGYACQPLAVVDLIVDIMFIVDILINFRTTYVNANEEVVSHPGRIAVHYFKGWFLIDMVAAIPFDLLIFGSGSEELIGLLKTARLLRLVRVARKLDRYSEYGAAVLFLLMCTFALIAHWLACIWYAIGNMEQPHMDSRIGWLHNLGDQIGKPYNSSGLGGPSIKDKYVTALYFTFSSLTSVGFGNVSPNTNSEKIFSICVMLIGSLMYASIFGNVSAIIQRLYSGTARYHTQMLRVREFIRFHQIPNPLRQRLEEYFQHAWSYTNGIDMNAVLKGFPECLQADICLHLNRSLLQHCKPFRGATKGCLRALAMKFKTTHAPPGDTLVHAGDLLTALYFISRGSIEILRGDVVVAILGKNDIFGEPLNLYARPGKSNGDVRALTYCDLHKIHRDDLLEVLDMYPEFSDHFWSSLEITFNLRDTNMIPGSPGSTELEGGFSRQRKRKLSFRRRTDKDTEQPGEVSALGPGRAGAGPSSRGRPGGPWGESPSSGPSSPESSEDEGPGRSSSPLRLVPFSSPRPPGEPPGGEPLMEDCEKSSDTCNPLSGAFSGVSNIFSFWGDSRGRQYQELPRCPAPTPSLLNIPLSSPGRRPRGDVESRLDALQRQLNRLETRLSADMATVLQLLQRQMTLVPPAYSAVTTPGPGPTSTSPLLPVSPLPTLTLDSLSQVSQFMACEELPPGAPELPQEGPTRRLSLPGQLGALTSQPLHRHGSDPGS
row,SMILES,"hERG current change (%, negative = inhibition) at 1uM"
1,CCCOC(=O)CSC1=C(C#N)C(c2ccccc2Cl)CC(=O)N1 (centres unmarked),9.53%
2,COc1ccc(N2CCN(C(=O)c3ccc(C)c(Cl)c3)CC2)cc1,-7.97%
3,CCCCNC(=S)NNC(=O)c1csc(CC)c1,0.456%
4,CCN(CC)C(=O)Cn1cc(C(=O)C(=O)N2CCN(Cc3ccccc3)CC2)c2ccccc21,15.5%
5,CC1(C)Cc2c(cnn2-c2ccccc2)C(=O)/C1=N\NC(=O)c1ccccc1,16.8%
6,CCOc1ccc(C2C3=C(CCCC3=O)Nc3nc(C(F)(F)F)nn32)cc1OC (centres unmarked),-1.44%
7,CCOC(=O)c1ccc(NC(=S)N(CCN2CCCCCC2)Cc2ccco2)cc1,-87.2%
8,CCOc1ccc(NC(=O)CCn2c(=S)oc3ccccc32)cc1,11.7%
9,NC(=O)CC(NC(=O)Cc1ccc(Br)cc1)c1ccc(NC2CCCCCC2)c([N+](=O)[O-])c1 (centres unmarked),3.66%
10,O=C(COc1ccc(-c2ccccc2)cc1)N/N=C/c1cc(O)ccc1Br,3.69%
11,O=C(O)CC1SC(=Nc2cccc(O)c2)NC1=O (centres unmarked),9.05%
12,O=C(COC(=O)CNC(=O)c1ccc(Br)cc1)Nc1nnc(-c2ccccc2)o1,12.1%
13,CCCOc1ccc(C2C(=O)N(C3CCCCC3)CC(=O)N2CCC)cc1OC (centres unmarked),8.7%
14,Cc1ccc(C)c(/C(O)=C2\C(=O)C(=O)N(CCCn3ccnc3)C2c2ccncc2)c1 (centres unmarked),12.8%
15,C/C(=N\NC(=O)c1ccccc1)c1ccc2c(c1)OCO2,21.2%
16,O=C(Nc1cccc2cccnc12)c1cccc([N+](=O)[O-])c1,10.6%
17,COc1ccc(OCCN2C(=O)NC(C)(c3ccc(C)cc3)C2=O)cc1 (centres unmarked),-10.6%
18,CCn1c(SCC(=O)NC(C)C)nnc1-c1cccs1,8.06%
19,CCOc1ccc(C(=O)/C=C/Nc2ccc(S(=O)(=O)Nc3onc(C)c3C)cc2)cc1,7.2%
20,CCCNS(=O)(=O)c1ccc(-n2cnnn2)c(OC)c1,4.13%
21,O=C(COc1ccccc1)N(Cc1ccco1)c1ccc(O)cc1,8.59%
22,Cc1cccc(NS(=O)(=O)c2ccc([N+](=O)[O-])cc2)n1,6.95%

row,SMILES,"hERG current change (%, negative = inhibition) at 1uM"
1,COc1ccc(CN(C(=O)c2oc3ccccc3c2C)C2CCS(=O)(=O)C2)cc1 (centres unmarked),-2.96%
2,O=C1Nc2ccc(Br)cc2C1=C1CCCCC1,21.6%
3,O=C(CCC(=O)c1ccccc1)NCCc1c[nH]c2ccccc12,5.22%
4,CCOC(=O)CN1C(=N)N(c2nc(NC(C)C)nc(OC)n2)CC1=O,7.09%
5,[O-]/[N+](=C/c1ccc(F)cc1)c1ccc(Cl)cc1,10.8%
6,Cc1ccc(-n2c(Cc3cccn3C)nnc2SCC(=O)Nc2ccc3c(c2)OCO3)cc1,0.763%
7,Cc1cc(/C=C2/SC(=S)N(c3ccc([N+](=O)[O-])cc3)C2=O)c(C)n1-c1cccnc1,13.2%
8,CC(C(=O)c1ccccc1)[n+]1cccc(Br)c1.[Br-] (centres unmarked),4.99%
9,O=S(=O)(c1ccccc1OC(F)(F)F)N1CCN(c2ccnc3cc(Cl)ccc23)CC1,9.89%
10,O=S(=O)(c1ccccc1)N1CCN(c2nnnn2-c2ccccc2)CC1,4.02%
11,Cc1cc(=O)n2nc(N3CCC(C(=O)N4CCN(C)CC4)CC3)sc2n1,15.3%
12,Cl.N=c1ccn(Cc2ccc(Cl)cc2)cc1,4.49%
13,CSc1cccc(NC(=O)CC2Oc3ccccc3NC2=O)c1 (centres unmarked),7.99%
14,CC(C)(C)C(=O)Nc1ccc(F)cc1[N+](=O)[O-],7.33%
15,CCCCNC(=O)Cn1c(=O)n(C)c2ccccc21,10.9%
16,CCc1ccc(NC(=O)CSc2nnc(CNC(=O)c3cccs3)o2)cc1,8.18%
17,Oc1cccc2ccc(Nc3ccccn3)nc12,-16%
18,COc1ccc(CC(=O)NNC(=O)c2ccncc2)cc1,10.6%
19,CCCC(C(=O)NC1CCCC1)N(Cc1ccc(OC)cc1)C(=O)c1snc(C(N)=O)c1N (centres unmarked),7.15%
20,COc1ccc(-n2c(SCC(C)=O)nc3sc(C)c(C)c3c2=O)cc1,17.3%
21,O=C(N1CCOCC1)N1CCC(c2nc(-c3ccc(S(=O)(=O)N4CCOCC4)cc3)no2)CC1,5.27%
22,COC(=O)C(NC(C)=O)(Nc1nc2ccc(S(C)(=O)=O)cc2s1)C(F)(F)F (centres unmarked),16%

# — article PMC4336329 (PLoS ONE, 2015)
